The other results are listed elsewhere or left out.
System: S. aureus RN4220
Experiment: growth inhibition call (relative growth <= 0.2)
Settings: 50 µM

Growth inhibition call, inactive:
Cc1noc(C)c1NC(=O)N(C)C[C@@H]1Oc2c(NC(=O)C3CCOCC3)cccc2C(=O)N([C@@H](C)CO)C[C@@H]1C
C[C@@H]1CN([C@@H](C)CO)C(=O)c2cc(-c3cncnc3)cnc2O[C@H]1CN(C)C(=O)CN1CCOCC1
Cc1cc(C(=O)COC(=O)Cn2cnc3c2c(=O)n(C)c(=O)n3C)c(C)n1C
Cc1nc(N)sc1-c1ccnc(Nc2ccc(N3CCOCC3)cc2)n1
N[C@H]1[C@H](CCCCC(=O)O)SC[C@@H]1N
O=C(C[C@H]1C=C[C@@H](NS(=O)(=O)c2ccc(F)cc2)[C@H](CO)O1)N1CCC(Cc2ccccc2)CC1
C[C@@H]1CCCCO[C@@H](CN(C)C(=O)Nc2cccc3ccccc23)[C@H](C)CN([C@H](C)CO)C(=O)c2cc(NC(=O)Nc3ccc(C(F)(F)F)cc3)ccc2O1
C[C@@H]1CN([C@H](C)CO)C(=O)c2cc(NS(=O)(=O)c3ccc(F)cc3)ccc2O[C@@H]1CN(C)Cc1ccc(Cl)c(Cl)c1
CC(C)NC(=O)Nc1cccc2c1O[C@@H](CN(C)S(=O)(=O)c1ccccc1)[C@@H](C)CN([C@@H](C)CO)C2=O
C[C@H](CO)N1C[C@H](C)[C@@H](CN(C)C(=O)Nc2cccc3ccccc23)OCc2cn(nn2)CCCC1=O
OCC1(CO)COC(COc2ccccc2)=N1
O=C(C[C@H]1CC[C@@H](NC(=O)CN2CCOCC2)[C@@H](CO)O1)NC1CCC1
COC(=O)[C@H]1[C@H](CO)[C@H]2Cn3c(ccc(-c4ccccc4)c3=O)[C@H]2N1S(C)(=O)=O
